Test results as given in patent US20230303698A1 (published 2023).
Values belong to the binder of their own block, whether it stands above or below them.

Tests used:
[1] = molecular target: human 4-1BB (human, UniProt Q07011 24-255); assay: FACS
[2] = molecular target: T1, human OX40 (human, UniProt P43489 29-277); assay: FACS
T1 chain: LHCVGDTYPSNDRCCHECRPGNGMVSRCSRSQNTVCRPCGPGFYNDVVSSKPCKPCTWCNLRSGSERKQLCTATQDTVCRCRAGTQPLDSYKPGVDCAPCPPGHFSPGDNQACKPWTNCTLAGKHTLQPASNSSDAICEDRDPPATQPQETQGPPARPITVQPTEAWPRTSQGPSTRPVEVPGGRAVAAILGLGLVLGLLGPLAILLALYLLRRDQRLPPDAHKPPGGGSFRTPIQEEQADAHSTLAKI

UniProt Q07011, sequence (Q07011 24-255): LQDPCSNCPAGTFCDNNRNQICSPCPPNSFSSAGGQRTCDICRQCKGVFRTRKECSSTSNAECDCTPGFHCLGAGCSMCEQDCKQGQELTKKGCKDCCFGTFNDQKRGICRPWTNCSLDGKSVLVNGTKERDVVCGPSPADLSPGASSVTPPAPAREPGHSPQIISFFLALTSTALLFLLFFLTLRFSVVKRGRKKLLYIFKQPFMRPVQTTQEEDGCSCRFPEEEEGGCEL

EC50 [1]: 0.533 nM
B2: PR005649 (bispecific antibody)
chain 1: QVQLVESGGGVVQPGRSLRLSCAASGFTFRSFGMHWVRQAPGKGLEWVAVISYDASNEYYADSVKGRFIISRDNSKDTLYLQMNSLRAGDTAVYYCAKGGGLRWYFAYWGQGTLVTVSSASTKGPSVFPLAPSSKSTSGGTAALGCLVKDYFPEPVTVSWNSGALTSGVHTFPAVLQSSGLYSLSSVVTVPSSSLGTQTYICNVNHKPSNTKVDKKVEPKSC
chain 2: EIVMTQSPATLSVSPGERATLSCRASQSISSNLGWYQQKPGQAPRLLIYGASTRATGIPARFSGSGSGTEFTLTISSLQSEDFAVYYCQQYQSWPPLTFGGGTKVEIKRTVAAPSVFIFPPSDEQLKSGTASVVCLLNNFYPREAKVQWKVDNALQSGNSQESVTEQDSKDSTYSLSSTLTLSKADYEKHKVYACEVTHQGLSSPVTKSFNRGECEPKSSDKTHTPPPPPEVQLVESGGGVVQPGGSLRLSCAASGFTFSNYAMTWVRQAPEKGLEWVSSISGSGVSTYYADSVKGRFTISRDNSKNTLYLQMTRLTAEDTAVYFCAKEGSSETDDHYYNVDVWGQGTTVTVSSERKCCVECPPCPAPEAAGGPSVFLFPPKPKDTLMISRTPEVTCVVVDVSHEDPEVKFNWYVDGVEVHNAKTKPREEQYNSTYRVVSVLTVLHQDWLNGKEYKCKVSNKALPAPIEKTISKAKGQPREPQVYTLPPSREEMTKNQVSLTCLVKGFYPSDIAVEWESNGQPENNYKTTPPVLDSDGSFFLYSKLTVDKSRWQQGNVFSCSVMHEALHNHYTQKSLSLSPGK

EC50 [2]: 11.3 nM
B3: PR007167 (bispecific antibody)
chain 1: B2 chain 1
chain 2: EIVMTQSPATLSVSPGERATLSCRASQSISSNLGWYQQKPGQAPRLLIYGASTRATGIPARFSGSGSGTEFTLTISSLQSEDFAVYYCQQYQSWPPLTFGGGTKVEIKRTVAAPSVFIFPPSDEQLKSGTASVVCLLNNFYPREAKVQWKVDNALQSGNSQESVTEQDSKDSTYSLSSTLTLSKADYEKHKVYACEVTHQGLSSPVTKSFNRGECEVQLLESGGGLVQPGGSLRLSCAASGFTFSSYAMSWVRQAPGKGLEWVSAISGRGGSTFYADSVRGRFTISRDNSKNTLYLQMNSLRAEDTAMYYCVDGTTGTTDVDYWGQGTLVTVSS[letters of human IgG1 Fc with changes not shown]

EC50 [1]: 0.531 nM
B4: PR005650 (bispecific antibody)
chain 1: B2 chain 1
chain 2: EIVMTQSPATLSVSPGERATLSCRASQSISSNLGWYQQKPGQAPRLLIYGASTRATGIPARFSGSGSGTEFTLTISSLQSEDFAVYYCQQYQSWPPLTFGGGTKVEIKRTVAAPSVFIFPPSDEQLKSGTASVVCLLNNFYPREAKVQWKVDNALQSGNSQESVTEQDSKDSTYSLSSTLTLSKADYEKHKVYACEVTHQGLSSPVTKSFNRGECEVQLVESGGGVVQPGGSLRLSCAASGFTFSNYAMTWVRQAPEKGLEWVSSISGSGVSTYYADSVKGRFTISRDNSKNTLYLQMTRLTAEDTAVYFCAKEGSSETDDHYYNVDVWGQGTTVTVSS[letters of human IgG1 Fc with changes not shown]EVQLVESGGGVVQPGGSLRLSCAASGFTFSNYAMTWVRQAPEKGLEWVSSISGSGVSTYYADSVKGRFTISRDNSKNTLYLQMTRLTAEDTAVYFCAKEGSSETDDHYYNVDVWGQGTTVTVSS

EC50 [1]: 4 nM
B6: PR007165 (bispecific antibody)
light: EIVMTQSPATLSVSPGERATLSCRASQSISSNLGWYQQKPGQAPRLLIYGASTRATGIPARFSGSGSGTEFTLTISSLQSEDFAVYYCQQYQSWPPLTFGGGTKVEIKRTVAAPSVFIFPPSDEQLKSGTASVVCLLNNFYPREAKVQWKVDNALQSGNSQESVTEQDSKDSTYSLSSTLTLSKADYEKHKVYACEVTHQGLSSPVTKSFNRGEC
heavy: QVQLVESGGGVVQPGRSLRLSCAASGFTFRSFGMHWVRQAPGKGLEWVAVISYDASNEYYADSVKGRFIISRDNSKDTLYLQMNSLRAGDTAVYYCAKGGGLRWYFAYWGQGTLVTVSSASTKGPSVFPLAPSSKSTSGGTAALGCLVKDYFPEPVTVSWNSGALTSGVHTFPAVLQSSGLYSLSSVVTVPSSSLGTQTYICNVNHKPSNTKVDKKVEPKSCEVQLVESGGGVVQPGGSLRLSCAASGFTFSNYAMTWVRQAPEKGLEWVSSISGSGVSTYYADSVKGRFTISRDNSKNTLYLQMTRLTAEDTAVYFCAKEGSSETDDHYYNVDVWGQGTTVTVSS[letters of human IgG1 Fc with changes not shown]

EC50 [2]: 13.2 nM
B7: PR007166 (bispecific antibody)
light: B6 light
heavy: QVQLVESGGGVVQPGRSLRLSCAASGFTFRSFGMHWVRQAPGKGLEWVAVISYDASNEYYADSVKGRFIISRDNSKDTLYLQMNSLRAGDTAVYYCAKGGGLRWYFAYWGQGTLVTVSSASTKGPSVFPLAPSSKSTSGGTAALGCLVKDYFPEPVTVSWNSGALTSGVHTFPAVLQSSGLYSLSSVVTVPSSSLGTQTYICNVNHKPSNTKVDKKVEPKSCEVQLLESGGGLVQPGGSLRLSCAASGFTFSSYAMSWVRQAPGKGLEWVSAISGRGGSTFYADSVRGRFTISRDNSKNTLYLQMNSLRAEDTAMYYCVDGTTGTTDVDYWGQGTLVTVSS[letters of human IgG1 Fc with changes not shown]

Continued, binder first:

B1: PR005189 (bispecific antibody)
chain 1: B2 chain 1
chain 2: EIVMTQSPATLSVSPGERATLSCRASQSISSNLGWYQQKPGQAPRLLIYGASTRATGIPARFSGSGSGTEFTLTISSLQSEDFAVYYCQQYQSWPPLTFGGGTKVEIKRTVAAPSVFIFPPSDEQLKSGTASVVCLLNNFYPREAKVQWKVDNALQSGNSQESVTEQDSKDSTYSLSSTLTLSKADYEKHKVYACEVTHQGLSSPVTKSFNRGECEVQLVESGGGVVQPGGSLRLSCAASGFTFSNYAMTWVRQAPEKGLEWVSSISGSGVSTYYADSVKGRFTISRDNSKNTLYLQMTRLTAEDTAVYFCAKEGSSETDDHYYNVDVWGQGTTVTVSS[letters of human IgG1 Fc with changes not shown]
EC50 [1]: 4.25 nM

B5: PR004279 (bispecific antibody)
chain 1: B2 chain 1
chain 2: EIVMTQSPATLSVSPGERATLSCRASQSISSNLGWYQQKPGQAPRLLIYGASTRATGIPARFSGSGSGTEFTLTISSLQSEDFAVYYCQQYQSWPPLTFGGGTKVEIKRTVAAPSVFIFPPSDEQLKSGTASVVCLLNNFYPREAKVQWKVDNALQSGNSQESVTEQDSKDSTYSLSSTLTLSKADYEKHKVYACEVTHQGLSSPVTKSFNRGECEPKSSDKTHTPPPPPEVQLVESGGGVVQPGGSLRLSCAASGFTFSNYAMTWVRQAPEKGLEWVSSISGSGVSTYYADSVKGRFTISRDNSKNTLYLQMTRLTAEDTAVYFCAKEGSSETDDHYYNVDVWGQGTTVTVSS[letters of human IgG1 Fc with changes not shown]
EC50 [1]: 0.503 nM

B8: PR004276 (bispecific antibody)
light: B6 light
heavy: QVQLVESGGGVVQPGRSLRLSCAASGFTFRSFGMHWVRQAPGKGLEWVAVISYDASNEYYADSVKGRFIISRDNSKDTLYLQMNSLRAGDTAVYYCAKGGGLRWYFAYWGQGTLVTVSSASTKGPSVFPLAPSSKSTSGGTAALGCLVKDYFPEPVTVSWNSGALTSGVHTFPAVLQSSGLYSLSSVVTVPSSSLGTQTYICNVNHKPSNTKVDKKV[letters of human IgG1 Fc with changes not shown]EPKSSDKTHTPPPPPRTEVQLLESGGGLVQPGGSLRLSCAASGFTFSSYAMSWVRQAPGKGLEWVSAISGRGGSTFYADSVRGRFTISRDNSKNTLYLQMNSLRAEDTAMYYCVDGTTGTTDVDYWGQGTLVTVSS
EC50 [2]: 2.8 nM

B9: PR004278 (bispecific antibody)
light: B6 light
heavy: EVQLVESGGGVVQPGGSLRLSCAASGFTFSNYAMTWVRQAPEKGLEWVSSISGSGVSTYYADSVKGRFTISRDNSKNTLYLQMTRLTAEDTAVYFCAKEGSSETDDHYYNVDVWGQGTTVTVSSGGGGSGGGGSGGGGSQVQLVESGGGVVQPGRSLRLSCAASGFTFRSFGMHWVRQAPGKGLEWVAVISYDASNEYYADSVKGRFIISRDNSKDTLYLQMNSLRAGDTAVYYCAKGGGLRWYFAYWGQGTLVTVSSASTKGPSVFPLAPSSKSTSGGTAALGCLVKDYFPEPVTVSWNSGALTSGVHTFPAVLQSSGLYSLSSVVTVPSSSLGTQTYICNVNHKPSNTKVDKKV[letters of human IgG1 Fc with changes not shown]
EC50 [1]: 0.477 nM
